Laboratory results taken from patent US12263248B2, “Compounds and compositions for intracellular delivery of therapeutic agents” (ModernaTX, Inc., priority 2018, dated 2025).
For some of these results: At least one read-out could not be matched to a standard name with certainty. Some results were stated once for a whole list of compounds, not compound by compound.

Tests used:
luciferase (Luc) mRNA [1] = assay: Luc expression in liver, lung, spleen and femur 6 hours after intravenous administration; assay type: in vivo; conditions: mice, i.v., 0.5 mpk, in words
Protocol: The efficacy of the nanoparticle compositions presented in Table 1A was further evaluated by measuring the expression of modified luciferase in the liver, lung, spleen, and femur upon administration of a given composition. Formulations were administered intravenously to mice (n=3) at a dosage of 0.5 mpk and bioluminescence measured after 6 hours. The standard MC3 formulation and a PBS control were also tested. […] Flux in the liver was lowest for compositions including Compounds 58, 59, 137, and 141. Flux in the spleen was highest for compositions including Compounds 4, 7, 33, 34, 48, 53, 108, 129, 130, and 148, and lowest for compositions including Compounds 9, 59, 124, and 141.
(§1) Whole body and ex vivo organ bioluminescent imaging of mice: CD-1 mice were injected 15 minutes prior to the imaging timepoint intraperitoneally (IP) with 200 μL Xenolight D-luciferin K+ salt, diluted in PBS just prior to use to a concentration of 15 mg/mL. Ex vivo imaging of organs was completed within 25 minutes of luciferin administration. All images were quantified by region of interest for total flux.

luciferase (Luc) mRNA [2] = assay: Luc expression, whole body bioluminescence after intravenous administration to mice; assay type: in vivo; conditions: for Novel lipid/MC3 expression ratio, 6 hr. time point, i.v. / Novel lipid/MC3 ratio, 6 hr. timepoint, i.v.: luciferase, intravenous; for Novel lipid/MC3 expression ratio, 6 hr. time point, i.v.: relative to MC3 formulation; for flux measured at 6 h relative to the MC3 formulation: i.v. administration, in words; for Novel lipid/MC3 ratio, 6 hr. timepoint, i.v.: relative to MC3, Table 3G
Protocol: In order to monitor how effectively various nanoparticle compositions deliver therapeutic and/or prophylactics to targeted cells, different nanoparticle compositions including a particular therapeutic and/or prophylactic (for example, a modified or naturally occurring RNA such as an mRNA) are prepared and administered to rodent populations. Mice are intravenously, intramuscularly, intraarterially, or intratumorally administered a single dose including a nanoparticle composition with a formulation such as those provided in Example 3. In some instances, mice may be made to inhale doses. Dose sizes may range from 0.001 mg/kg to 10 mg/kg, where 10 mg/kg describes a dose including 10 mg of a therapeutic and/or prophylactic in a nanoparticle composition for each 1 kg of body mass of the mouse. A control composition including PBS may also be employed.
Upon administration of nanoparticle compositions to mice, dose delivery profiles, dose responses, and toxicity of particular formulations and doses thereof can be measured by enzyme-linked immunosorbent assays (ELISA), bioluminescent imaging, or other methods. For nanoparticle compositions including mRNA, time courses of protein expression can also be evaluated. Samples collected from the rodents for evaluation may include blood, sera, and tissue (for example, muscle tissue from the site of an intramuscular injection and internal tissue); sample collection may involve sacrifice of the animals.
The efficacy of the nanoparticle compositions presented in Table 1A was evaluated with a bioluminescence study. Formulations were administered intravenously to mice (n=6) at a dosage of 0.5 mg/kg (mpk) and bioluminescence measured at 3, 6, and 24 hour time points. The standard MC3 formulation and, in some instances, a control (e.g., a PBS control) were evaluated for comparison. […] In general, flux decreased as time progressed to less than 10% of the initial flux.
as §1

[3] = Particle size and polydispersity index of nanoparticle compositions (Zetasizer Nano ZS); assay type: physicochemical; conditions: text on Tables 1A-1E
Protocol: A Zetasizer Nano ZS (Malvern Instruments Ltd, Malvern, Worcestershire, UK) can be used to determine the particle size, the polydispersity index (PDI) and the zeta potential of the nanoparticle compositions in 1×PBS in determining particle size and 15 mM PBS in determining zeta potential.

Row | SMILES | Flux in the liver (luciferase (Luc) mRNA [1]) | size (e.g., diameter) of the compositions [3] | other results
1 | CCCCCCCCCOC(=O)CCCCCCCN(CCO)CCCCCCC(=O)OCC(CCCCCCCC)CCCCCCCC [Compound 143, Nonyl 8-((2-hydroxyethyl)(7-((2-octyldecyl)oxy)-7-oxoheptyl)amino)octanoate] | comparable to that of MC3 formulations |  | Novel lipid/MC3 expression ratio, 6 hr. time point, i.v. (luciferase (Luc) mRNA [2]): 0.44
2 | CCCCCCCCCC(=O)OCCCCCCCN(CCO)CCCCCCCOC(=O)C(CCCCCCCC)CCCCCCCC [Compound 151, 7-((7-(Decanoyloxy)heptyl)(2-hydroxyethyl)amino)heptyl 2-octyldecanoate] | comparable to that of MC3 formulations |  | flux measured at 6 h relative to the MC3 formulation (luciferase (Luc) mRNA [2]): noticeably higher
3 | CCCCCCCCCOC(=O)CCCCCCCN(CCO)CCCCCCCC(=O)OCCCCCCCCC [Compound 138, Dinonyl 8,8′-((2-hydroxyethyl)azanediyl)dioctanoate] |  | largest particles | 
4 | CCCCCCCCOP(=O)(OCCCCCCCC)OCCCCCCCN(CCO)CCCCCCCC(=O)OC(C)CCCCCCCC (stereo not shown) [Compound 132, Decan-2-yl 8-((7-((bis(octyloxy)phosphoryl)oxy)heptyl)(2-hydroxyethyl)amino)octanoate] |  | largest particles | 
5 | CCCCCCCCCOC(=O)CCCCCCCN(CCO)CCCCCCCCCC(=O)OC(CCCCCC)CCCCCC [Compound 147, Tridecan-7-yl 10-((2-hydroxyethyl)(8-(nonyloxy)-8-oxooctyl)amino)decanoate] | comparable to that of MC3 formulations |  | flux measured at 6 h relative to the MC3 formulation (luciferase (Luc) mRNA [2]): noticeably higher
6 | CCCCCCCCCOC(=O)CCCCCCCN(CCO)CCCCCCCOP(=O)(OCCCCCCCC)OCCCCCCCC [Compound 131, Nonyl 8-((7-((bis(octyloxy)phosphoryl)oxy)heptyl)(2-hydroxyethyl)amino)octanoate] |  | largest particles | 
7 | CCCCCCCCCOC(=O)CCCCCCCN(CCO)CCCCCCCC(=O)OC(C)(C)C [Compound 158, tert-Butyl 8-((2-hydroxyethyl)(8-(nonyloxy)-8-oxooctyl)amino)octanoate] |  | largest particles | 
8 | CCCCCCCCCOC(=O)CCCCCCCN(CCCCO)CCCCCCCC(=O)OC(CCCCCCCC)CCCCCCCC [Compound 20, Heptadecan-9-yl 8-((4-hydroxybutyl)(8-(nonyloxy)-8-oxooctyl)amino) octanoate] | comparable to that of MC3 formulations |  | Novel lipid/MC3 ratio, 6 hr. timepoint, i.v. (luciferase (Luc) mRNA [2]): 0.80; Novel lipid/MC3 expression ratio, 6 hr. time point, i.v. (luciferase (Luc) mRNA [2]): 0.80
9 | CCCCCCCCC(CCCCCCCC)OC(=O)CCCCCCCN(CCO)CCCCCCCC(=O)OC(C)(C)C [Compound 155, tert-Butyl 8-((8-(heptadecan-9-yloxy)-8-oxooctyl)(2-hydroxyethyl)amino)octanoate] |  | largest particles | 
10 | CCCCCCCCC(CCCCCC)C(=O)OCCCCCCCCCN(CCO)CCCCCCCCCOC(=O)C(CCCCCC)CCCCCCCC (stereo not shown) [Compound 133, ((2-Hydroxyethyl)azanediyl)bis(nonane-9,1-diyl) bis(2-hexyldecanoate)] | comparable to that of MC3 formulations |  | flux measured at 6 h relative to the MC3 formulation (luciferase (Luc) mRNA [2]): noticeably higher
11 | CCCCCCCCCOC(=O)CCCCCCCN(CCO)CCCCCCCC(=O)OC(CC)CC [Compound 59, nonyl 8-((2-hydroxyethyl)(8-oxo-8-(pentan-3-yloxy)octyl)amino) octanoate] |  | largest particles | 
12 | CCCCCCCCC(CCCCCCCC)OC(=O)CCCCCCCN(CCO)CCCCCCCC(=O)OCC(CCCCCCC)OC (stereo not shown) [Compound 148, Heptadecan-9-yl 8-((2-hydroxyethyl)(8-((2-methoxynonyl)oxy)-8-oxooctyl)amino)octanoate] | comparable to that of MC3 formulations | largest particles | flux measured at 6 h relative to the MC3 formulation (luciferase (Luc) mRNA [2]): noticeably higher
13 | CCCCCCCCCOC(=O)CCCCCCCN(CCO)CCCCCCCC(=O)OC(CC)CCCCCCCC (stereo not shown) [Compound 35, nonyl 8-((2-hydroxyethyl)(8-oxo-8-(undecan-3-yloxy)octyl)amino) octanoate] |  | largest particles | 
14 | CCCCC/C=C\C/C=C\CCCCCCCCN(CCO)CCCCCCCC(=O)OC(CCCCCCCC)CCCCCCCC [Compound 6, Heptadecan-9-yl 8-((2-hydroxyethyl)((9Z,12Z)-octadeca-9,12-dien-1-yl)amino)octanoate] | comparable to that of MC3 formulations |  | 
15 | CCCCCCCCC(CCCCCCCC)OC(=O)CCCCCCCN(CCO)CCCCCCCC [Compound 4, Heptadecan-9-yl 8-((2-hydroxyethyl)(octyl)amino)octanoate] | comparable to that of MC3 formulations |  | 
16 | CCCCCCCCC(CCCCCCCC)OC(=O)CCCCCCCN(C)CCCCCCCCCC(=O)OCCCCCCC [Compound 149, Heptyl 10-((8-(heptadecan-9-yloxy)-8-oxooctyl)(methyl)amino)decanoate] | comparable to that of MC3 formulations |  | 
17 | CCCCCCCCCOC(=O)CCCCCCCN(CCO)CCCCCCCC(=O)OC(C)CCCCCCCC (stereo not shown) [Compound 36, decan-2-yl 8-((2-hydroxyethyl)(8-(nonyloxy)-8-oxooctyl)amino) octanoate] |  | largest particles | 
18 | CCCCCCCCCOC(=O)CCCCCCCN(CCO)CCCCCCCCCOC(=O)C(CCCCCC)CCCCCCCC (stereo not shown) [Compound 134, 9-((2-Hydroxyethyl)(8-(nonyloxy)-8-oxooctyl)amino)nonyl 2-hexyldecanoate] | comparable to that of MC3 formulations |  | flux measured at 6 h relative to the MC3 formulation (luciferase (Luc) mRNA [2]): noticeably higher
19 | CCCCCCCCCOC(=O)CCCCCCCN(CCCCCCCC(=O)OC(CCCCCCCC)CCCCCCCC)CCCNC(=S)NC [Compound 113, Heptadecan-9-yl 8-((3-(3-methylthioureido)propyl)(8-(nonyloxy)-8-oxooctyl)amino)octanoate] | comparable to that of MC3 formulations |  | Novel lipid/MC3 ratio, 6 hr. timepoint, i.v. (luciferase (Luc) mRNA [2]): 0.59; Novel lipid/MC3 expression ratio, 6 hr. time point, i.v. (luciferase (Luc) mRNA [2]): 0.59
20 | CCCCCCCCC(CCCCCCCC)OC(=O)CCCCCCCN(CCO)CCCC(=O)OCCCC [Compound 51, heptadecan-9-yl 8-((4-butoxy-4-oxobutyl)(2-hydroxyethyl)amino) octanoate] |  | largest particles | 
21 | CCCCCCCCCOC(=O)CCCCCCCN(CCCCCCCC(=O)OC(CCCCCCCC)CCCCCCCC)CCCNC(=S)N(C)C [Compound 111, Heptadecan-9-yl 8-((3-(3,3-dimethylthioureido)propyl)(8-(nonyloxy)-8-oxooctyl)amino)octanoate] | comparable to that of MC3 formulations |  | 
22 | CCCCCCCCCOC(=O)CCCN(CCO)CCCCCCCC(=O)OC(CCCCCCCC)CCCCCCCC [Compound 26, Heptadecan-9-yl 8-((2-hydroxyethyl)(4-(nonyloxy)-4-oxobutyl)amino) octanoate] | comparable to that of MC3 formulations |  | 
23 | CCCCCCCCC(CCCCCCCC)OC(=O)CCCCCCCN(CCO)CCCCCC [Compound 5, Heptadecan-9-yl 8-(hexyl(2-hydroxyethyl)amino)octanoate] |  | largest particles | 
24 | CCCCCCCCCOC(=O)CCCCCCCN(CCO)CCCCCCCC(=O)OC(CCCCCC)CCCCCCCC (stereo not shown) [Compound 32, nonyl 8-((2-hydroxyethyl)(8-oxo-8-(pentadecan-7-yloxy)octyl)amino) octanoate] | comparable to that of MC3 formulations |  | 
25 | CCCCCCCCC(CCCCCCCC)OC(=O)CCCCCCCN(CCO)CCCCCCCC(=O)N(C)CCCCCCCC [Compound 145, Heptadecan-9-yl 8-((2-hydroxyethyl)(8-(methyl(octyl)amino)-8-oxooctyl)amino)octanoate] |  | largest particles | 
26 | CCCCCC/C=C\COC(=O)CCCCCCCN(CCO)CCCCCCCC(=O)OC/C=C\CCCCCC [Compound 139, Di((Z)-non-2-en-1-yl) 8,8′-((2-hydroxyethyl)azanediyl)dioctanoate] |  | largest particles | 
